Numbering of substitutions follows the chain as printed. Numbers in names are those of the source. These are yes or no findings as the source states them, for the method shown. Some entries that bind do so weakly or less than the wild type. For some assays here: Where a sequence is shown, tags or fusion partners need not be part of it.
T1: GST-CtUrm1 (Chaetomium thermophilum) (UniProt G0SE11)
T1 sequence: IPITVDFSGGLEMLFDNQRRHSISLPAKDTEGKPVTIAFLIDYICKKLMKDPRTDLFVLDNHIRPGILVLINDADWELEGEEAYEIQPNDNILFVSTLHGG

T2: Chaetomium thermophilum Urm1 (ubiquitin-related modifier 1) (Chaetomium thermophilum) (UniProt G0SE11)
T2 sequence: T1 sequence

B1: CtUba4 C202S, full length (enzyme, UniProt G0SC54 1-444)
chain: MGSTQKSLSKEEIERYSRQMIVPGMGKEGQLRLMNAKVLIIGAGGLGCPAAQYLAGAGVGTIGIVDGDSVETSNLHRQVAHATKRVGMLKVDSLITHLIEINPLPVYVPYRFDLTPQNAAQIIKPWDVILDCTDNPATRYLISDVCVLLGKPLVSAASVQKSGQLIVLNCPPTPQGVVNKKAAPCYRCCFKKPPPPSAQTSSGEAGIMGPVVGMMGVAQAGEAIKILVSQLHMPPKEGEEVSPEKNLVQPTLLIYTYDLNSAIGPYSFRALKMGGRKKDCFACGENSTLTLDGIKSGNPNYVQFCGNMTQSTNLAPEDRITATAYNEKRRNGELGEHILLDTREKEHFSFGSIPGAVNVPFSKFLVKASSIKREGNSPAELLPMQPASDEAPIVVVCRRGQDSQEVVEKLKELGLDNGGKRKIMDIVGGMKAWRDEVDPDFPFI
B2: CtUba4 C202A, full length (enzyme, UniProt G0SC54 1-444)
chain: B1 chain with S202A
B3: Chaetomium thermophilum Uba4 (ubiquitin-like protein activator 4), full length, wild type (enzyme, UniProt G0SC54 1-444, looked up)
chain: B1 chain with S202C
notes: Uba4 of Chaetomium thermophilum, UniProt G0SC54, full length aa 1-444; Expressed from pETM30 (N-terminal His6 and GST) and pETM11 (N-terminal His6); tags cleaved with TEV; Codon-optimised gene; also called CtUba4; CtUba4 FL; source: E. coli BL21(DE3) pRARE, purified (Ni-NTA, TEV cleavage, second Ni-NTA, SEC Superdex 200); not shown: His6, N-terminal, cleaved
B4: CtUba4 C202K, full length (enzyme, Chaetomium thermophilum, UniProt G0SC54 1-444, looked up)
chain: B1 chain with S202K
notes: Uba4 of Chaetomium thermophilum, UniProt G0SC54, full length aa 1-444 with C202K; With Urm1 and ATP the epsilon-amino group of Lys202 forms a non-hydrolysable iso-peptide bond with Gly111 of Urm1; The RHD is present in the crystals but has no density; source: E. coli BL21(DE3) pRARE, purified (Ni-NTA, TEV cleavage, SEC Superdex 200); not shown: His6, N-terminal, cleaved
B5: CtUba4 C397S, full length (enzyme, UniProt G0SC54 1-444)
chain: B1 chain with S202C, C397S
B6: CtUba4 306GGS314, full length (linker residues 306-314 replaced by three Gly-Gly-Ser repeats) (enzyme, UniProt G0SC54 1-444)
chain: B1 chain with S202C, N307G, M308S, T309G, Q310G, T312G, N313G, L314S
B7: CtUba4 C202S/C397S, full length (enzyme, UniProt G0SC54 1-444)
chain: B1 chain with C397S
B8: CtUba4 R398A/R399A, full length (enzyme, UniProt G0SC54 1-444)
chain: B1 chain with S202C, R398A, R399A
B9: CtUba4 Q401A/D402A, full length (enzyme, UniProt G0SC54 1-444)
chain: B1 chain with S202C, Q401A, D402A
B10: CtUba4 rhodanese-like domain R398A/R399A (domain or fragment, UniProt G0SC54 319-444)
chain: RITATAYNEKRRNGELGEHILLDTREKEHFSFGSIPGAVNVPFSKFLVKASSIKREGNSPAELLPMQPASDEAPIVVVCAAGQDSQEVVEKLKELGLDNGGKRKIMDIVGGMKAWRDEVDPDFPFI
B11: human MOCS3 rhodanese-like domain (335-460) (domain or fragment, UniProt O95396 335-460)
chain: RVSVTDYKRLLDSGAFHLLLDVRPQVEVDICRLPHALHIPLKHLERRDAESLKLLKEAIWEEKQGTQEGAAVPIYVICKLGNDSQKAVKILQSLSAAQELDPLTVRDVVGGLMAWAAKIDGTFPQY

Tests used:
[1] = molecular target: T1, GST-CtUrm1 (Chaetomium thermophilum); experiment: pull-down; GST-CtUrm1 on Glutathione Sepharose 4B; with 1 mM ATP; 100 mM MES pH 6.0, 100 mM NaCl, 2 mM MgCl2; 30 min at 37°C, then 90 min on beads at room temperature; Coomassie; both purified
[2] = molecular target: T1, GST-CtUrm1 (Chaetomium thermophilum); experiment: pull-down; GST-CtUrm1 on Glutathione Sepharose 4B; without nucleotide; 100 mM MES pH 6.0, 100 mM NaCl, 2 mM MgCl2; 30 min at 37°C; Coomassie; both purified
[3] = molecular target: T2, Chaetomium thermophilum Urm1 (ubiquitin-related modifier 1) (Chaetomium thermophilum); experiment: SEC; 20 μM CtUba4 WT or mutant and 30 μM CtUrm1 with 40 μM ATP in 100 mM MES pH 6.0, 100 mM NaCl, 2 mM MgCl2, 37°C for 30 min; Superdex 200 Increase 10/300 GL; complex fractions on SDS-PAGE; both purified
[4] = molecular target: T2, Chaetomium thermophilum Urm1 (ubiquitin-related modifier 1) (Chaetomium thermophilum); experiment: SEC-MALS; static light scattering (RALS/LALS, Malvern OMNISEC) after Superdex 200 Increase 10/300 GL; apo and CtUrm1-bound CtUba4; 1 mg/ml; 100 mM MES pH 6.0, 100 mM NaCl, 2 mM MgCl2; both purified
[5] = molecular target: T1, GST-CtUrm1 (Chaetomium thermophilum); experiment: pull-down; GST-CtUrm1 on Glutathione Sepharose 4B; with 1 mM AMP-PNP; 100 mM MES pH 6.0, 100 mM NaCl, 2 mM MgCl2; 30 min at 37°C; Coomassie; both purified
[6] = molecular target: T2, Chaetomium thermophilum Urm1 (ubiquitin-related modifier 1) (Chaetomium thermophilum); experiment: crystal structure; CtUba4 C202K, CtUrm1 and ATP (1.00:1.25:2.25) incubated in 100 mM MES pH 6.0, 100 mM NaCl, 2 mM MgCl2 at 37°C for 30 min, complex isolated on Superdex 200 Increase; crystals in 0.1 M HEPES pH 7.5, 20% PEG 3350; 3.15 Å; both purified
[7] = molecular target: CtUba4 rhodanese-like domain R398A/R399A (Chaetomium thermophilum) (UniProt G0SC54); experiment: SEC + SEC-MALS; SEC profiles and static light scattering (RALS/LALS) after Superdex 75 10/300 GL; 1 mg/ml; 20 mM Tris pH 7.5, 150 mM NaCl, 1 mM DTT; both purified
[8] = molecular target: human MOCS3 rhodanese-like domain (335-460) (human) (UniProt O95396); experiment: SEC; 125 μg of purified protein on a Superdex 75 10/300 GL analytical column (Fig 1C); both purified

Binder	binding [1]	binding [3]	other results
B1	binds		
B2	binds		
B3	binds	binds	binding [2]: no binding (condition: without ATP); binding [4]: binds; binding [5]: binds
B4	binds		binding [6]: binds
B5	binds	binds	
B6	binds		
B7		binds	
B8		binds	
B9		binds	
B10			binding [7]: no binding (tested: 1 mg/ml)
B11			binding [8]: no binding (tested: 125 μg applied)
